# Reference: publication PMC4336329 (PLoS ONE, 2015)
# Out of some 310,000 compounds screened, about 14,000 (4.5%) showed an effect of 50% or more. The effect is printed as a negative number. This is one part of the list.
# Target: human ether-à-go-go-related gene (hERG) potassium channel (human, UniProt Q12809)
# Assay: primary screen, population patch clamp on CHO cells stably expressing hERG
# 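Note: peak tail current of the secondary pulse compared with the same well before compound.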
# Sequence of human ether-à-go-go-related gene (hERG) potassium channel (Q12809 whole entry, looked up): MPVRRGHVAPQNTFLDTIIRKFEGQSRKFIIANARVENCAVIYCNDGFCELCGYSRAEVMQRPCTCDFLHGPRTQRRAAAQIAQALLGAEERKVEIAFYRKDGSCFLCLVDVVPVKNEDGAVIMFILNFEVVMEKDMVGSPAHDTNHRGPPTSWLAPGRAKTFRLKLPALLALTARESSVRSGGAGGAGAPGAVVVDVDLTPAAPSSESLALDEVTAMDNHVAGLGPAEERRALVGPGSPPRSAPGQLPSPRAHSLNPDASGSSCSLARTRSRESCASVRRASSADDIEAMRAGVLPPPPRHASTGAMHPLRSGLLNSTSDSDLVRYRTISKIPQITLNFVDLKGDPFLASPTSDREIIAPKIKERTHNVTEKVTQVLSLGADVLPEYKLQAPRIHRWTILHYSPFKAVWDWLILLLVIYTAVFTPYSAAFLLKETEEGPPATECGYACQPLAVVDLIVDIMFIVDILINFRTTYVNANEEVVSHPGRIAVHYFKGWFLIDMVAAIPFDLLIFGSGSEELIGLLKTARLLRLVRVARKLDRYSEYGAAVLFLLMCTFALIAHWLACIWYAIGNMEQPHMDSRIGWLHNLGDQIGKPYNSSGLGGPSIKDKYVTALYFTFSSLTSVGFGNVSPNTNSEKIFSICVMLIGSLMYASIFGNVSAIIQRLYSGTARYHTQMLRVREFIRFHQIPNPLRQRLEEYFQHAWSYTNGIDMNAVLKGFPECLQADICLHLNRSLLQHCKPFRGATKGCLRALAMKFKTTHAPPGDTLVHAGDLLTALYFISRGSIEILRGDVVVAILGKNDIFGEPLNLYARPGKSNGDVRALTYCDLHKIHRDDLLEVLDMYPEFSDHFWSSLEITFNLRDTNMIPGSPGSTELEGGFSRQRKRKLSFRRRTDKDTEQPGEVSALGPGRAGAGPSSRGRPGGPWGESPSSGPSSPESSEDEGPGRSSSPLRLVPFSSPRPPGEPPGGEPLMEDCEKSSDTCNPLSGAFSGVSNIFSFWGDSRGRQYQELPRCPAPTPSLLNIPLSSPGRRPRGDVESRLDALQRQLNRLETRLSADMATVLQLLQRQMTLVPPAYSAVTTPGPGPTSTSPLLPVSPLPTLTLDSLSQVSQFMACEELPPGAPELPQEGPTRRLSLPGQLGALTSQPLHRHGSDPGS
row,SMILES,"hERG current change (%, negative = inhibition) at 10uM"
1,Cc1nnc(C)c2c(C)n(-c3ccccc3N)c(C)c12,-11.8%
2,CC1CCN(CCCNC(=O)c2coc3nc4ccccc4nc23)CC1,-10.1%
3,CSCCC(NC(=O)c1ccccc1Br)C(=O)NCC(C)(C)N1CCOCC1 (centres unmarked),-13.8%
4,Cc1ccc(-c2nnc(N3CCCCC3)c3ccccc23)cc1,-11.2%
5,CN(Cc1nnc(-c2ccc(F)cc2)o1)c1ccccc1,-6.15%
6,COc1ccc(-n2nc(C(=O)NCC(=O)Nc3cc(OC)ccc3OC)c3ccccc3c2=O)cc1,15.1%
7,COc1ccc(NC(=O)CC2Nc3cccc4cccc(c34)NC2=O)cc1 (centres unmarked),-16%
8,Nc1ccn(Cc2ccccc2)n1,-19.4%
9,CC12CCC(C(=O)NNc3ccc([N+](=O)[O-])cc3)(CC1=O)C2(C)C (centres unmarked),0.48%
10,Cc1ccnc2nc(C(=O)OCC(=O)N(CC(C)C)CC(C)C)nn12,15.5%
11,COc1cc(NC(=O)C2CCN(S(=O)(=O)c3ccc4c(c3)CC(C)N4C(C)=O)CC2)cc(OC)c1OC (centres unmarked),4.47%
12,CCSc1ccccc1C(=O)Nc1cc(OC)c(OC)c(OC)c1,-2.86%
13,COc1cc(/C=N/NC(=O)CNC(=O)c2ccco2)ccc1O,7.95%
14,Cc1ccc(CN2C(=O)CCC2C(=O)N2CCN(c3ccc(F)cc3)CC2)cc1 (centres unmarked),-28.1%
15,CN(Cc1ccccc1)c1ccc(N2C(=O)CCC2=O)cc1[N+](=O)[O-],-5.55%
16,C/C(=N/NC(=O)c1ccc(Cl)cc1Cl)c1cccnc1,16.4%
17,CO/N=C/c1ccc(N2CCN(C(=O)c3ccc(Cl)cc3Cl)CC2)c([N+](=O)[O-])c1,-53.1%
18,Cc1cc(/C=N/NC(=O)c2ccc(O)cc2)c(C)n1CC(C)C,-9.91%
19,Nc1nc2ccc(N3CCOCC3)cc2s1,-9.29%

row,SMILES,"hERG current change (%, negative = inhibition) at 10uM"
1,CCOP(=O)(/C=C(\Cl)c1ccccc1)C(O)c1ccc(F)cc1 (centres unmarked),6.68%
2,COc1cccc(/C=C/C(=O)Nc2ccc3[nH]c(=O)[nH]c3c2)c1,7.9%
3,CC1(NC(=S)NCCCCCCNC(=S)NC2(C)CCS(=O)(=O)C2)CCS(=O)(=O)C1 (centres unmarked),17.1%
4,CCOCCCNC(=O)C1(O)c2ccccc2NC(=O)N1c1ccc(Cl)cc1 (centres unmarked),11.8%
5,COc1cc(/C=C2\SC(=S)N(C(Cc3ccccc3)C(=O)O)C2=O)ccc1O (centres unmarked),8.15%
6,CN1CCN(C(=O)c2cc3ccccc3cc2O)CC1,3.98%
7,CC(C)(C)CC(C)(C)Nc1c(-c2ccc(O)cc2)nc2cnccn12,3.97%
8,CCOc1ccc(C(=O)OC(C)CN2CCCCC2)cc1.Cl (centres unmarked),-29%
9,C=CCNc1nc(N)c(C(=C(C#N)C#N)c2ccccc2)s1,12.4%
10,COc1ccc(S(=O)(=O)N2CCc3ccccc32)cc1OC,-9.6%
11,Cc1nn(CC(=O)N2c3ccccc3NC(=O)C2(C)C)c(C)c1[N+](=O)[O-],6%
12,NC(=O)c1oc2ccccc2c1NC(=O)CCc1ccccc1,-3.11%
13,Cc1cc(C)c(-c2c(O)c3cnn(-c4ccccc4)c3[nH]c2=O)c(C)c1,8.37%
14,COc1cc2[nH]cc(C(=O)NCc3cccs3)c(=O)c2cc1OC,1.86%
15,CC(=O)N(C)c1ccc(NCc2cc(=O)oc3cc(C)c(O)cc23)cc1,-6.24%
16,Nc1nc(C2CCCN2S(=O)(=O)c2ccc(Cl)cc2)cs1 (centres unmarked),-3.42%
17,O=C(O)c1c[nH]c2c(C(F)(F)F)cccc2c1=O,-1.62%
18,O=C(NCc1ccco1)C1CCN(C(=O)c2ccc(Cl)cc2Cl)CC1,-0.217%
19,O=C(Nc1ccc(Cl)cc1)N(Cc1cccnc1)Cc1ccco1,-63.9%

row,SMILES,"hERG current change (%, negative = inhibition) at 10uM"
1,Cc1cc(C)cc(N2C(=O)CC(N(C(=O)c3ccco3)c3cc(C)cc(C)c3)C2=O)c1 (centres unmarked),12.8%
2,Cc1ccc(C(=O)Nn2cnnc2)c(Cl)c1,20%
3,O=[N+]([O-])c1ncccc1OCc1ccccc1Br,8.6%
4,CCOc1ccc(Nc2nc(N)nc(CN3CCN(c4ccccc4F)CC3)n2)cc1,-80.8%
5,CC1CCCC(NC(=O)COC(=O)c2cccs2)C1C (centres unmarked),-1.8%
6,Cc1onc(-c2ccccc2Cl)c1C(=O)Nc1ccc(-n2nncc2C(C)(C)C)cc1,4.1%
7,CCCC(C(=O)NC1CCCC1)N(Cc1ccccc1Cl)C(=O)c1snc(C(N)=O)c1N (centres unmarked),12%
8,O=C(N/N=C/c1c(O)n(Cc2ccc(F)cc2)c(=O)[nH]c1=O)c1ccccc1,-3.17%
9,CCc1c(C(=O)Nc2cc(C(=O)OC)ccc2C)csc1C,8.22%
10,Cc1nn(C)cc1CN(C)C(=O)c1ccc(OC2CCN(Cc3ccccn3)CC2)cc1,8.65%
11,O=C(N/N=C/c1ccco1)c1cc(-c2ccccc2)n[nH]1,-12.6%
12,Cc1ccc(N(CC(=O)NCc2ccccc2Cl)S(=O)(=O)c2c(C)noc2C)cc1,22.4%
13,O=C(Nc1ccc(N2CCOCC2)cc1)C1CCN(C(=O)OCc2ccccc2)CC1,15.2%
14,Cc1sc2ncn(CC(=O)NCC(=O)N(C)C3CCCCC3)c(=O)c2c1C,-18.2%
15,CC(C)CNC(=O)c1ccccc1NC(=O)CCSc1ccccc1,-17.6%
16,O=C(Oc1ccc(N(Cc2cccs2)C2=NS(=O)(=O)c3ccccc32)cc1)c1ccccc1,-8.58%
17,CC1Cc2ccccc2N1CC(=O)Nc1ccc(Cl)c(S(=O)(=O)N(C)C)c1 (centres unmarked),-1.59%
18,CCN(CC)CCCNC(=O)c1cn(C)c(=O)c2c1c1ccccc1n2C,10.1%
